At least one read-out could not be matched to a standard name with certainty.
Tests used:
Settings in all cases: lowest concentration inhibiting 95% of growth (OD600); with BLi relebactam 4 μg/mL; 22 hours, 35±2° C.
[1] = tested on: Acinetobacter baumannii expressing TEM-1, AmpC, and Oxa-24/40 (CL6188); type: cell-based
[2] = tested on: Escherichia co/i expressing NDM-1 (CLB30016); experiment: Growth inhibitory concentration (OD600), E. coli CLB30016; type: cell-based, Escherichia coli
[3] = tested on: Pseudomonas aeruginosa expressing AmpC (CL5701); experiment: Growth inhibitory concentration (OD600), P. aeruginosa CL5701; type: cell-based
[4] = tested on: Klebsiella pneumoniae expressing KPC-1 (CL6569); experiment: Growth inhibitory concentration (OD600), K. pneumoniae CL6569; type: cell-based

CC1(C)[C@H](NC(=O)/C(=N\O[C@](C)(C(=O)O)[C@H]2CCc3cc(C(=N)N[C@@H]4CCCNCC4)ccc3O2)c2csc(N)n2)C(=O)N1OS(=O)(=O)O [Compound 31, (S)-2-((((Z)-1-(2-aminothiazol-4-yl)-2-(((S)-2,2-dimethyl-4-oxo-1-(sulfooxy)azetidin-3-yl)amino)-2-oxoethylidene)amino)oxy)-2-((R)-6-(N—((R)-azepan-4-yl)carbamimidoyl)chroman-2-yl)propanoic acid]
AB_CL6188 MITC95 [1]: 3.125 µM | EC_CLB30016 MITC95 [2]: 4.688 µM | PA_CL5701 MITC95 [3]: 1.563 µM | KP_CL6569 MITC95 [4]: 0.3906 µM

CC1(C)[C@H](NC(=O)/C(=N\O[C@](C)(C(=O)O)[C@H]2CCc3cc(C(=N)N[C@@H]4CC[C@@H](N)C4)ccc3O2)c2csc(N)n2)C(=O)N1OS(=O)(=O)O (single isomer, unassigned) [Compound 48]
AB_CL6188 MITC95 [1]: 6.25 µM | EC_CLB30016 MITC95 [2]: 6.25 µM | PA_CL5701 MITC95 [3]: 1.563 µM | KP_CL6569 MITC95 [4]: 0.3906 µM

CC1(C)[C@H](NC(=O)/C(=N\O[C@](C)(C(=O)O)[C@H]2CCc3cc(C(=N)N[C@H]4CCN[C@H](CO)C4)ccc3O2)c2csc(N)n2)C(=O)N1OS(=O)(=O)O (single isomer, unassigned) [Compound 53]
AB_CL6188 MITC95 [1]: 6.25 µM | EC_CLB30016 MITC95 [2]: 12.5 µM | PA_CL5701 MITC95 [3]: 3.125 µM | KP_CL6569 MITC95 [4]: 0.7813 µM

CC1(C)[C@H](NC(=O)/C(=N\O[C@](C)(C(=O)O)[C@H]2CCc3cc(C(=N)N[C@H]4CC[C@H](CN)CC4)ccc3O2)c2csc(N)n2)C(=O)N1OS(=O)(=O)O [Compound 42, (S)-2-((R)-6-(N-((1r,4R)-4-(aminomethyl)cyclohexyl)carbamimidoyl)chroman-2-yl)-2-((((Z)-1-(2-aminothiazol-4-yl)-2-(((S)-2,2-dimethyl-4-oxo-1-(sulfooxy)azetidin-3-yl)amino)-2-oxoethylidene)amino)oxy)propanoic acid]
AB_CL6188 MITC95 [1]: 3.125 µM | EC_CLB30016 MITC95 [2]: 14.06 µM | PA_CL5701 MITC95 [3]: 1.563 µM | KP_CL6569 MITC95 [4]: 0.3906 µM

CC1(C)[C@H](NC(=O)/C(=N\O[C@](C)(C(=O)O)[C@H]2CCc3cc(C(=N)N[C@H]4CCCNC4)ccc3O2)c2csc(N)n2)C(=O)N1OS(=O)(=O)O [Compound 40, (S)-2-((((Z)-1-(2-aminothiazol-4-yl)-2-(((S)-2,2-dimethyl-4-oxo-1-(sulfooxy)-azetidin-3-yl)amino)-2-oxoethylidene)amino)oxy)-2-((R)-6-(N—((S)-piperidin-3-yl)carbamimidoyl)-chroman-2-yl)propanoic acid]
AB_CL6188 MITC95 [1]: 6.25 µM | EC_CLB30016 MITC95 [2]: 3.125 µM | PA_CL5701 MITC95 [3]: 1.563 µM | KP_CL6569 MITC95 [4]: 0.3906 µM

COCC[C@]1(N)C[C@@H](NC(=N)c2ccc3c(c2)CC[C@H]([C@](C)(O/N=C(\C(=O)N[C@@H]2C(=O)N(OS(=O)(=O)O)C2(C)C)c2csc(N)n2)C(=O)O)O3)C1 [Compound 93, (S)-2-((R)-6-(N-((1s,3S)-3-amino-3-(2-methoxyethyl)cyclobutyl)carbamimidoyl)chroman-2-yl)-2-((((Z)-1-(2-aminothiazol-4-yl)-2-(((S)-2,2-dimethyl-4-oxo-1-(sulfooxy)azetidin-3-yl)amino)-2-oxoethylidene)amino)oxy)propanoic acid]
AB_CL6188 MITC95 [1]: 6.25 µM | EC_CLB30016 MITC95 [2]: 6.25 µM | PA_CL5701 MITC95 [3]: 3.125 µM | KP_CL6569 MITC95 [4]: 0.7813 µM

CC1(C)[C@H](NC(=O)/C(=N\O[C@](C)(C(=O)O)[C@H]2CCc3cc(C(=N)N[C@H]4CCNC[C@H]4CO)ccc3O2)c2csc(N)n2)C(=O)N1OS(=O)(=O)O (single isomer, unassigned) [Compound 51]
AB_CL6188 MITC95 [1]: 6.25 µM | EC_CLB30016 MITC95 [2]: 12.5 µM | PA_CL5701 MITC95 [3]: 1.563 µM | KP_CL6569 MITC95 [4]: 0.7813 µM

CC1(C)[C@H](NC(=O)/C(=N\O[C@](C)(C(=O)O)[C@H]2CCc3cc(C(=N)N[C@@H]4CCCNC4)ccc3O2)c2csc(N)n2)C(=O)N1OS(=O)(=O)O [Compound 39, (S)-2-((((Z)-1-(2-aminothiazol-4-yl)-2-(((S)-2,2-dimethyl-4-oxo-1-(sulfooxy)-azetidin-3-yl)amino)-2-oxoethylidene)amino)oxy)-2-((R)-6-(N—((R)-piperidin-3-yl)carbamimidoyl)-chroman-2-yl)propanoic acid]
AB_CL6188 MITC95 [1]: 6.25 µM | EC_CLB30016 MITC95 [2]: 6.25 µM | PA_CL5701 MITC95 [3]: 1.563 µM | KP_CL6569 MITC95 [4]: 0.3906 µM

CC1(C)[C@H](NC(=O)/C(=N\O[C@](C)(C(=O)O)[C@H]2CCc3cc(C(=N)N[C@H]4CCCCNC4)ccc3O2)c2csc(N)n2)C(=O)N1OS(=O)(=O)O [Compound 11, (S)-2-((((Z)-1-(2-aminothiazol-4-yl)-2-(((S)-2,2-dimethyl-4-oxo-1-(sulfooxy)-azetidin-3-yl)amino)-2-oxoethylidene)amino)oxy)-2-((R)-6-(N—((S)-azepan-3-yl)carbamimidoyl)-chroman-2-yl)propanoic acid]
AB_CL6188 MITC95 [1]: 6.25 µM | EC_CLB30016 MITC95 [2]: 3.125 µM | PA_CL5701 MITC95 [3]: 1.563 µM | KP_CL6569 MITC95 [4]: 0.3906 µM

CC1(C)[C@H](NC(=O)/C(=N\O[C@](C)(C(=O)O)[C@H]2CCc3cc(C(=N)NC4CC5(CNC5)C4)ccc3O2)c2csc(N)n2)C(=O)N1OS(=O)(=O)O [Compound 14, (S)-2-((R)-6-(N-(2-azaspiro[3.3]heptan-6-yl)carbamimidoyl)chroman-2-yl)-2-((((Z)-1-(2-aminothiazol-4-yl)-2-(((S)-2,2-dimethyl-4-oxo-1-(sulfooxy)azetidin-3-yl)-amino)-2-oxoethylidene)amino)oxy)propanoic acid]
AB_CL6188 MITC95 [1]: 3.125 µM | EC_CLB30016 MITC95 [2]: 6.25 µM | PA_CL5701 MITC95 [3]: 1.563 µM | KP_CL6569 MITC95 [4]: 0.3906 µM

CC1(C)[C@H](NC(=O)/C(=N\O[C@](C)(C(=O)O)[C@H]2CCc3cc(C(=N)NC4CCN(C[C@H](O)CN)CC4)ccc3O2)c2csc(N)n2)C(=O)N1OS(=O)(=O)O [Compound 29, (S)-2-((R)-6-(N-(1-((R)-3-amino-2-hydroxypropyl)piperidin-4-yl)carbamimidoyl)chroman-2-yl)-2-((((Z)-1-(2-aminothiazol-4-yl)-2-(((S)-2,2-dimethyl-4-oxo-1-(sulfooxy)azetidin-3-yl)amino)-2-oxoethylidene)amino)oxy)propanoic acid]
AB_CL6188 MITC95 [1]: 3.125 µM | EC_CLB30016 MITC95 [2]: 2.344 µM | PA_CL5701 MITC95 [3]: 0.7813 µM | KP_CL6569 MITC95 [4]: 0.1953 µM

CC1(C)[C@H](NC(=O)/C(=N\O[C@](C)(C(=O)O)[C@H]2CCc3cc(C(=N)N[C@H]4CC[C@H](C(C)(C)N)CC4)ccc3O2)c2csc(N)n2)C(=O)N1OS(=O)(=O)O [Compound 133, (S)-2-((R)-6-(N-((1r,4R)-4-(2-aminopropan-2-yl)cyclohexyl)carbamimidoyl)chroman-2-yl)-2-((((Z)-1-(2-aminothiazol-4-yl)-2-(((S)-2,2-dimethyl-4-oxo-1-(sulfooxy)azetidin-3-yl)amino)-2-oxoethylidene)amino)oxy)propanoic acid]
AB_CL6188 MITC95 [1]: 3.125 µM | EC_CLB30016 MITC95 [2]: 6.25 µM | PA_CL5701 MITC95 [3]: 1.563 µM | KP_CL6569 MITC95 [4]: 0.3906 µM

CC1(C)[C@H](NC(=O)/C(=N\O[C@](C)(C(=O)O)[C@H]2CCc3cc(C(=N)N[C@H]4C[C@](C)(N)C4)ccc3O2)c2csc(N)n2)C(=O)N1OS(=O)(=O)O [Compound 74, (S)-2-((R)-6-(N-((1r,3R)-3-amino-3-methylcyclobutyl)carbamimidoyl)chroman-2-yl)-2-((((Z)-1-(2-aminothiazol-4-yl)-2-(((S)-2,2-dimethyl-4-oxo-1-(sulfooxy)azetidin-3-yl)amino)-2-oxoethylidene)amino)oxy)propanoic acid]
AB_CL6188 MITC95 [1]: 7.813 µM | EC_CLB30016 MITC95 [2]: 7.813 µM | PA_CL5701 MITC95 [3]: 1.563 µM | KP_CL6569 MITC95 [4]: 0.5859 µM

CN[C@H]1C[C@@H](NC(=N)c2ccc3c(c2)CC[C@H]([C@](C)(O/N=C(\C(=O)N[C@@H]2C(=O)N(OS(=O)(=O)O)C2(C)C)c2csc(N)n2)C(=O)O)O3)C1 [Compound 68, (S)-2-((((Z)-1-(2-aminothiazol-4-yl)-2-(((S)-2,2-dimethyl-4-oxo-1-(sulfooxy)azetidin-3-yl)amino)-2-oxoethylidene)amino)oxy)-2-((R)-6-(N-(cis-3-(methylamino)cyclobutyl)carbamimidoyl)chroman-2-yl)propanoic acid]
AB_CL6188 MITC95 [1]: 3.125 µM | EC_CLB30016 MITC95 [2]: 3.125 µM | PA_CL5701 MITC95 [3]: 1.563 µM | KP_CL6569 MITC95 [4]: 0.3906 µM

CC1(C)[C@H](NC(=O)/C(=N\O[C@](C)(C(=O)O)[C@H]2CCc3cc(C(=N)N[C@H]4CC[C@H](N)[C@H]5C[C@H]54)ccc3O2)c2csc(N)n2)C(=O)N1OS(=O)(=O)O (single isomer, unassigned) [Compound 27]
AB_CL6188 MITC95 [1]: 2.083 µM | EC_CLB30016 MITC95 [2]: 5.208 µM | PA_CL5701 MITC95 [3]: 1.563 µM | KP_CL6569 MITC95 [4]: 0.3906 µM

CNC1(CO)CC(NC(=N)c2ccc3c(c2)CC[C@H]([C@](C)(O/N=C(\C(=O)N[C@@H]2C(=O)N(OS(=O)(=O)O)C2(C)C)c2csc(N)n2)C(=O)O)O3)C1 (single isomer, unassigned) [Compound 91]
AB_CL6188 MITC95 [1]: 3.125 µM | EC_CLB30016 MITC95 [2]: 6.25 µM | PA_CL5701 MITC95 [3]: 1.563 µM | KP_CL6569 MITC95 [4]: 0.3906 µM

CC1(C)[C@H](NC(=O)/C(=N\O[C@](C)(C(=O)O)[C@H]2CCc3cc(C(=N)N[C@H]4C[C@@](C)(N)C4)ccc3O2)c2csc(N)n2)C(=O)N1OS(=O)(=O)O [Compound 75, (S)-2-((R)-6-(N-((1s,3S)-3-amino-3-methylcyclobutyl)carbamimidoyl)chroman-2-yl)-2-((((Z)-1-(2-aminothiazol-4-yl)-2-(((S)-2,2-dimethyl-4-oxo-1-(sulfooxy)azetidin-3-yl)amino)-2-oxoethylidene)amino)oxy)propanoic acid]
AB_CL6188 MITC95 [1]: 6.25 µM | EC_CLB30016 MITC95 [2]: 6.25 µM | PA_CL5701 MITC95 [3]: 1.563 µM | KP_CL6569 MITC95 [4]: 0.3906 µM

Source: patent US20250019376A1, “CHROMANE AMIDINE MONOBACTAM ANTIBIOTICS” (priority 2021, published 2025)
